The values below come from PubChem BioAssay AID463173 (ICCB-Longwood Screening Facility, Harvard Medical School, 2010).

About 1,700 (3.3%) of roughly 52,000 compounds were called active. Cut-off read from the data, not from the text of the source: active = survival mostly below about 52% (no sharp cut-off); inactive = mostly above about 56%. This is one part of the list.

This assay deals with Wild type. The experiment in a line: S. aureus survival, RN4220 and DeltatarO strains – OD600, teichoic acid synthesis inhibitors, primary screen (AID 463173). The conditions noted are these: S. aureus RN4220 wild type/DeltatarO growth, OD600, 18 h, active compounds read low, screened at 18.75 µg/mL (by protocol).
For the compound `CCc1nn(CC(=O)N2CCN(c3cc(C)ccc3C)CC2)c(=O)c2cc3occc3n12`, the survival is inactive: 75%.

As for `COc1ccc(CCNc2nc(SCc3ccc(F)cc3)nc3ccccc23)cc1OC`, the survival is inactive: 124%.

Take `O=S(=O)(Nc1ccc(-c2ccc(N3CCCCCC3)nn2)cc1)c1cccc(C(F)(F)F)c1`: the survival is inactive: 128%.

In the case of `CCn1c(N2CCN(CC(=O)c3ccc(OC)cc3)CC2)nc2ccccc21`, the survival is inactive: 107%.

As to `N#Cc1ccc(NC(=O)c2cc(-c3cccc(Cl)c3)on2)cc1`, the survival is inactive: 87%.

With `CCc1ccc(-c2nc(SCC(=O)NCC3CCCO3)c(-c3ccc(F)cc3)[nH]2)cc1` (configuration not stated), the survival was inactive: 87%.

For `CNC(=O)c1ccc(CSc2nc3cccnc3n2Cc2cccc(F)c2)cc1`, the survival was inactive: 128%.

Consider `Fc1ccccc1N1CCN(c2ncc3c(n2)CCN(Cc2ccc(Br)s2)C3)CC1`, for which the survival is inactive: 87%.

Take `CCC(=O)Nc1nc(-c2ccc(OC)cc2)cs1`: the survival is inactive: 102%.

On to `C=CCc1ccccc1OCCn1c(C2CC(=O)N(Cc3ccc(F)cc3)C2)nc2ccccc21` (configuration not stated), for which the survival was active: -16%.

Turning to `Cc1ccc(C)c(NC(=O)N2CCc3cc(S(=O)(=O)N4CCC(C)CC4)ccc32)c1`, the survival was inactive: 74%.

Consider `CN1C(=O)/C(=C2\SC(=S)N(C(CC(=O)O)C(=O)O)C2=O)c2ccccc21` (configuration not stated), for which the survival was inactive: 113%.

`Cc1ccc2nc(-c3cccc(Cl)c3)c(Nc3ccc4c(c3)OCO4)n2c1`: the survival is inactive: 83%.

Regarding `CC(Oc1ccccc1)C(=O)OCc1cc(=O)n2nc(C(C)C)sc2n1` (configuration not stated), the survival is inactive: 115%.

Take `COc1ccccc1CCNC(=O)C(=O)NCC(c1cccs1)S(=O)(=O)c1ccc(F)cc1` (configuration not stated): the survival is inactive: 74%.

In the case of `Cc1ccsc1CN(C(=O)c1ccc(Br)cc1)C1CCS(=O)(=O)C1` (configuration not stated), the survival is inactive: 90%.

As to `Cc1ccc(NC(=O)N2CCN3CCCCC3C2)cc1F` (configuration not stated), the survival is inactive: 146%.

With `COc1ccccc1CNC(=O)c1ccc2c(c1)nnn2C1CCCC1`, the survival is inactive: 136%.

Take `O=C(Nc1cccc(-c2nc3ccccc3[nH]2)c1)c1ccccc1F`: the survival is inactive: 43%.

For `CCc1ccc(S(=O)(=O)c2nnn3c2nc(NCc2cccc(OC)c2)c2cc(Cl)ccc23)cc1`, the survival is inactive: 91%.

For `COc1ccc(Cl)cc1NC(=O)C1CCN(S(=O)(=O)c2ccc3c(c2)CCCN3C(=O)C2CCC2)CC1`, the survival was inactive: 72%.

For the compound `Cc1cc(=O)[nH]c2nnc(SCC(=O)Nc3ccc(F)cc3F)n12`, the survival is inactive: 88%.

`COc1ccccc1NC(=O)Cn1cc(C(=O)c2ccncc2)c(=O)c2cc(C)ccc21`: the survival was inactive: 127%.

For `COc1ccc(NC(=O)c2cc(S(=O)(=O)N3CCCCC3)cn2C)cc1Cl`, the survival is inactive: 73%.

For `O=C(Nc1ccc(S(=O)(=O)N2CCCCC2c2cccnc2)cc1)c1ccc(F)cc1` (configuration not stated), the survival is inactive: 90%.

Take `COc1ccc(CNn2cnnc2SCc2ccc(F)cc2)cc1OC`: the survival was inactive: 103%.

Regarding `O=C(Nc1ccc(Cl)cc1)c1cc2c(Cl)nc3ccccc3c2s1`, the survival was inactive: 123%.

For `Cc1cccc(N(C)C(=O)c2cc(S(=O)(=O)N3CCCCC3)c[nH]2)c1`, the survival is inactive: 81%.

With `CN(C)c1ccc(-c2noc(C3CC(=O)N(c4ccc5c(c4)OCCO5)C3)n2)cc1` (configuration not stated), the survival is inactive: 79%.

In the case of `CCc1nnc2c3ccccc3nc(Nc3ccc(F)c(Cl)c3)n12`, the survival was inactive: 85%.

In the case of `CCCC(CCC)C(=O)Nc1nnc2n1CCS2`, the survival was inactive: 85%.

As to `COC(=O)CSc1nc2sc3c(c2c(=O)n1Cc1ccccc1)CCC(C(C)(C)C)C3` (configuration not stated), the survival is inactive: 80%.

In the case of `COc1ccccc1C(=O)N1c2ccccc2C(C)(c2ccc(Cl)cc2)CC1(C)C` (configuration not stated), the survival is active: 2%.

Consider `CCN(Cc1ccccc1)C(=O)CN1C(=O)CSc2ccc(S(=O)(=O)N(CC)CC)cc21`, for which the survival is inactive: 86%.

For the compound `CCc1ccc(CNC(=O)c2nn(-c3ccc(OC)c(Cl)c3)c(=O)c3c2c2ccccc2n3C)cc1`, the survival is inactive: 83%.

With `CC(C)NC(=O)C(C)Oc1ccccc1` (configuration not stated), the survival was inactive: 115%.

Regarding `COc1ccc(-c2c3c(nc4sc(C(=O)Nc5ccccc5F)c(N)c24)CC(C)(C)CC3=O)cc1`, the survival is inactive: 129%.

On to `CCOc1ccccc1NC(=O)CN1C(=O)COc2ccc(S(=O)(=O)Nc3ccccc3)cc21`, for which the survival is inactive: 90%.

For `COc1ccc(-c2nn(CC(=O)NCc3ccccc3)c3c2cnc2ccc(F)cc23)cc1`, the survival was inactive: 121%.

For the compound `Cc1nnc2sc(-c3ccc(N)cc3)nn12`, the survival is inactive: 108%.

In the case of `O=C(Cn1c(=O)nc(-c2ccccc2F)c2cc(Cl)ccc21)Nc1ccccc1C(F)(F)F`, the survival is inactive: 72%.

Turning to `Cc1ccc(-c2nc3nc(C)cc(N4CCN(c5cccc(C)c5)C(C)C4)n3n2)cc1` (configuration not stated), the survival was inactive: 98%.

`CCCCN(C)CCCNC(=O)CN1C(=O)CSc2ccc(S(=O)(=O)N3CCOCC3)cc21`: the survival is inactive: 73%.

Turning to `O=C(NCc1cccs1)c1nn(-c2ccccc2F)nc1CO`, the survival is inactive: 94%.

Take `CCC1Oc2ccc(C)cc2N(CC(=O)N(Cc2cccnc2)Cc2cccc(OC)c2)C1=O` (configuration not stated): the survival is inactive: 104%.

Consider `CCCCNC(=O)Cn1ncc2c(C)n(Cc3cccc(Cl)c3)c(C)c2c1=O`, for which the survival was inactive: 93%.

For the compound `Cc1ccc(NC(=O)C2CCCN(S(=O)(=O)c3ccc4[nH]c(=O)ccc4c3)C2)cc1C` (configuration not stated), the survival is inactive: 90%.

As to `COc1cc2oc(=O)c(CC(=O)NCCc3ccccc3F)c(C)c2cc1OC`, the survival was inactive: 87%.

Regarding `CCn1cc(C(=O)N2CCN(c3ccccc3)CC2)c(=O)c2cc(S(=O)(=O)N3CCCC3)ccc21`, the survival was inactive: 87%.

With `COc1cccc(C(=O)Nc2nc3nc(C)c(C)c(=O)n3[nH]2)c1`, the survival is inactive: 115%.

As to `CCNC(=O)c1c(NC(=O)Cc2coc3cc(C)ccc23)sc2c1CCCC2`, the survival was inactive: 94%.

Take `CCn1c(C(=O)NCc2ccc(OC)cc2)cc2sc(Cl)cc21`: the survival was inactive: 37%.

On to `Cc1ccc(Nc2ncnc3onc(C)c23)cc1Cl`, for which the survival was inactive: 80%.

Consider `CCc1ccccc1NC(=O)Cc1cn(C)c2ccccc12`, for which the survival was inactive: 74%.

`O=C(Nc1c(O)c2ccccc2oc1=O)c1cccc(F)c1`: the survival was inactive: 82%.

Take `CCOc1ccc(S(=O)(=O)Nc2cccc(C)c2)c2cccnc12`: the survival was inactive: 104%.

For `COc1cc(Cl)c(C)cc1NC(=O)c1ccc(CN2C(=O)CCn3nc(C)cc32)cc1`, the survival was inactive: 71%.
